From PubChem BioAssay AID588591 (National Center for Advancing Translational Sciences (NCATS), 2011)
Among all 390,000 compounds or so, about 4,700 (1.2%) were called active. Inconclusive means that the source gave no clear call. Such entries were picked first, then a sample of the others. The call rests on the fitted dose curve; in most records, active means well fitted inhibition curve with a large enough effect; inconclusive means small, poorly fitted or top-dose-only effect, or another doubt; inactive means no such curve, though single readings can be large or run the other way. Potencies beside an inconclusive call are fits to weak or partial responses and may not hold up.

Target: DNA polymerase eta (Homo sapiens) (UniProt Q9Y253)
Test: qHTS for Inhibitors of Polymerase Eta
Settings: recombinant Pol eta, fluorescent DNA replication assay; series mostly up to 114 µM
Outline: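 Fluorescent replication assay: 50 nM final substrate added after a 15 min room-temperature compound preincubation with 10 nM enzyme. Signal taken at 0 min and again at 10 min.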
Potency means the concentration at half of the fitted maximal effect; tags describe the fitted curve by direction and shape.

UniProt Q9Y253, sequence (Q9Y253 whole entry, looked up): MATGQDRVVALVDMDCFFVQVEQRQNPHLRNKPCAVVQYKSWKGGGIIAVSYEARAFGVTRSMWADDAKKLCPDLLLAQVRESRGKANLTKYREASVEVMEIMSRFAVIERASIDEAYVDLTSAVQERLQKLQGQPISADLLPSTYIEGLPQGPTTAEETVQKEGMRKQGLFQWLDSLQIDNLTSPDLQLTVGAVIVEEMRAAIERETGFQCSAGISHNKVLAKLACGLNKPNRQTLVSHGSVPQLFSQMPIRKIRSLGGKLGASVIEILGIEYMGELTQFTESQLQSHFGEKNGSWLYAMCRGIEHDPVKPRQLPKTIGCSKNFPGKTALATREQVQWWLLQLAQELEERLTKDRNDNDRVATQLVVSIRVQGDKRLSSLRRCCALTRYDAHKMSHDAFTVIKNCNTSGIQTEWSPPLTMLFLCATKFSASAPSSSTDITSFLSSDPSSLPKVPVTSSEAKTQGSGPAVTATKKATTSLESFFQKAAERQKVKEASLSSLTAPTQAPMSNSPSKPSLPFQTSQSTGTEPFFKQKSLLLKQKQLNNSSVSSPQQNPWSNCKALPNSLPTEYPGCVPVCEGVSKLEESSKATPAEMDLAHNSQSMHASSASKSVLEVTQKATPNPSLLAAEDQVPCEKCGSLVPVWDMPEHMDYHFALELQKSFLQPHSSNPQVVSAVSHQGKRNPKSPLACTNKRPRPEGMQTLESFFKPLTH

Q: Which Potency does the source give for CN(c1ccc(OCC(=O)OCC(=O)Nc2ccc(OC(F)F)cc2)cc1)S(=O)(=O)c1cccs1 here?
A: inconclusive: 100 µM [inhibitor, single point]

Q: How did the Potency turn out when CCOCCc1nnc(NC(=O)Cc2c(F)cccc2Cl)s1 was run?
A: inactive

Q: How did the Potency turn out when CCOC(=O)c1ccc(NC(=O)CSCc2ccco2)cc1 was run?
A: inconclusive: 79.4 µM [inhibitor, partial curve]

Q: With CCN(CC)S(=O)(=O)c1ccc2oc(SCC(=O)Nc3cc(C)on3)nc2c1 as the compound, how does the Potency read?
A: inconclusive: 17.8 µM [inhibitor, partial curve, poor fit]

Q: For CC(=O)Nc1ccc(C(=O)OCC(=O)N2CCN(C(=O)c3ccco3)CC2)cc1, which Potency is on record?
A: inactive

Q: For O=[N+]([O-])c1ccc(Sc2ccncn2)c([N+](=O)[O-])c1, which Potency is on record?
A: active: 50.1 µM

Q: For CC(Nc1cc(N2CCN(S(C)(=O)=O)CC2)ccc1[N+](=O)[O-])c1ccccc1 (stereo not given), which Potency is on record?
A: inconclusive: 79.4 µM [inhibitor, partial curve, poor fit]

Q: Which Potency does the source give for O=C(COC(=O)c1ccc2ncsc2c1)Nc1ncc(Cl)cc1Cl here?
A: active: 8.91 µM

Q: For O=C(O)c1cccc(-n2cccc2C=C2C(=O)c3ccccc3C2=O)c1, which Potency is on record?
A: active: 15.8 µM

Q: CCCn1c(=O)n(C)c(=O)c2c(SCC(=O)NCc3ccco3)nc(C3CC3)nc21 was tested. Which Potency did it give?
A: inconclusive: 14.1 µM [inhibitor, partial curve, poor fit]

Q: With CCCCc1c(C)nc2ccc(OC)cc2c1SCCC(=O)O as the compound, how does the Potency read?
A: inconclusive: 14.1 µM [inhibitor, full curve, poor fit]

Q: Which Potency does the source give for O=C(O)C1C2C=CC(C2)C1C(=O)Nc1ccccc1Br (stereo not given) here?
A: inconclusive: 89.1 µM [inhibitor, partial curve, poor fit]

Q: With O=C1/C(=C\Nc2ccc(OC(F)(F)F)cc2)CCN1c1ncccn1 as the compound, how does the Potency read?
A: inconclusive: 31.6 µM [inhibitor, partial curve, poor fit]

Q: With CCN(CC)S(=O)(=O)c1cc(NC(=O)c2ccc3c(c2)NC(=O)C(C)S3)ccc1C (stereo not given) as the compound, how does the Potency read?
A: active: 56.2 µM

Q: CCOC(=O)c1cc(-c2ccncc2)nc2c1c(C)nn2-c1ccccn1 was tested. Which Potency did it give?
A: inconclusive: 25.1 µM [inhibitor, partial curve]

Q: Which Potency does the source give for CCc1ccc2oc(-c3cc(NC(=O)c4cc([N+](=O)[O-])ccc4N4CCOCC4)ccc3Cl)nc2c1 here?
A: inconclusive: 79.4 µM [inhibitor, partial curve, poor fit]

Q: How did the Potency turn out when CCCN(CCC)C(=O)Cn1c(=O)n(-c2ccc(Cl)cc2)c(=O)c2c3c(sc21)CCCC3 was run?
A: inactive

Q: Which Potency does the source give for CCOc1ccc(C(=O)/C=C/Nc2ccc(S(=O)(=O)Nc3cc(C)nc(C)n3)cc2)cc1 here?
A: inconclusive: 14.1 µM [inhibitor, full curve, poor fit]

Q: Which Potency does the source give for CC(=O)C1=C(O)C(=O)N(C2CCCCC2)C1c1ccccc1 (stereo not given) here?
A: inconclusive: 89.1 µM [inhibitor, partial curve, poor fit]

Q: With C=CC[n+]1ccc(/C=C2\C=Cc3cc(C)ccc3N2CC)c2ccccc21 as the compound, how does the Potency read?
A: inactive

Q: How did the Potency turn out when CCOC(=O)C1Nc2ccc(C(F)(F)F)cc2C2C=CCC12 (stereo not given) was run?
A: active: 79.4 µM

Q: For Cc1nc2c(-c3ccc(F)cc3)c(C)nn2c(C)c1CCC(=O)NCCN1CCOCC1, which Potency is on record?
A: inactive

Q: Which Potency does the source give for COC(=O)c1cc(NC(=O)c2ccc3c(c2)NC(=O)c2ccccc2S3)cc(C(=O)OC)c1 here?
A: active: 50.1 µM

Q: How did the Potency turn out when O=C1C(=O)c2ccc(-c3ccccc3)cc2-c2ccccc21 was run?
A: active: 5.62 µM

Q: Which Potency does the source give for COC(=O)c1cc2occc2n1CC(=O)Nc1ccc(C(C)C)cc1 here?
A: inactive

Q: With O=C(Nc1sc2c(c1C(=O)O)CCC2)C(=O)N1CCOCC1 as the compound, how does the Potency read?
A: active: 20 µM

Q: For Cc1cc(F)ccc1NC(=O)Cn1c(=O)ccc2cc(S(=O)(=O)N3CCC(C)CC3)ccc21, which Potency is on record?
A: inactive

Q: O=c1[nH]c(/C=C/c2ccccc2Cl)c([N+](=O)[O-])c(=O)[nH]1 was tested. Which Potency did it give?
A: active: 28.2 µM

Q: O=C(O)CN1C(=O)C=CC1=O was tested. Which Potency did it give?
A: inconclusive: 28.2 µM [inhibitor, partial curve, poor fit]

Q: Which Potency does the source give for COc1ccc(NC(=O)c2c(NC(=O)Cc3ccccc3)sc3c2CCCC3)cc1 here?
A: inactive

Q: With O=C(O)c1ccccc1Nc1cc(Cl)c2nonc2c1[N+](=O)[O-] as the compound, how does the Potency read?
A: active: 50.1 µM

Q: Which Potency does the source give for CC(=O)c1c(C)[nH]c(C(=O)COc2ccc3ccc(=O)oc3c2)c1C here?
A: active: 35.5 µM

Q: Which Potency does the source give for CCOC(=O)c1c(C)[nH]c(C(=O)C(C)Sc2ccc(Cl)cc2)c1C (stereo not given) here?
A: inconclusive: 14.1 µM [inhibitor, partial curve, poor fit]

Q: O=C(O)COc1ccccc1/C=N/NC(=O)c1cc(-c2ccc(Cl)cc2)nc2ccccc12 was tested. Which Potency did it give?
A: inconclusive: 20 µM [inhibitor, full curve, poor fit]

Q: With COc1ccc(CC(=O)N/N=C/c2ccc(-c3cccc(C(=O)O)c3)o2)cc1OC as the compound, how does the Potency read?
A: active: 10 µM

Q: For CN(C)c1ccc(Cc2cc3c(O)ccc(O)c3cc(Cc3ccc(N(C)C)cc3)c2=O)cc1, which Potency is on record?
A: active: 2.24 µM

Q: How did the Potency turn out when COc1ccc2[nH]c3nc(SCC(=O)NNC(=O)c4ccc(OC)c(OC)c4)nnc3c2c1 was run?
A: inconclusive: 79.4 µM [inhibitor, partial curve, poor fit]

Q: Which Potency does the source give for Cc1nn(C)c2c1c(C(F)(F)F)cc(=O)n2C(C)C(=O)NCc1ccccc1Cl (stereo not given) here?
A: inactive

Q: Which Potency does the source give for CCSc1nnc(NC(=O)C2Cc3ccccc3CN2C(=O)c2ccco2)s1 (stereo not given) here?
A: active: 28.2 µM

Q: O=C(NC1CCCC1)c1ccc2nc(-c3ccco3)c(-c3ccco3)nc2c1 was tested. Which Potency did it give?
A: active: 3.55 µM

Q: For CN(C)S(=O)(=O)N(CC(=O)Nc1ccc(F)c(F)c1)c1ccccc1, which Potency is on record?
A: inconclusive: 89.1 µM [inhibitor, partial curve, poor fit]

Q: How did the Potency turn out when Cc1ncc(COCc2ccccc2)c(CO)c1OCc1ccccc1 was run?
A: inconclusive: 44.7 µM [inhibitor, partial curve, poor fit]

Q: With Cc1ccc(SCC(=O)Nc2ccc(-c3nnc(-c4ccco4)o3)cc2)cc1 as the compound, how does the Potency read?
A: inconclusive: 20 µM [inhibitor, partial curve]

Q: Which Potency does the source give for COCC(C)OC(=O)/C(C#N)=C\c1coc2ccc(C)cc2c1=O (stereo not given) here?
A: inconclusive: 10 µM [inhibitor, partial curve, poor fit]

Q: Which Potency does the source give for CC(=O)Nc1ccc(S(=O)(=O)Nc2nc3ccccc3nc2-n2ccc(=NC(=O)c3ccccc3)cc2)cc1 here?
A: inconclusive: 31.6 µM [inhibitor, single point]
